Data from publication PMC10139999.
These are yes or no findings as the source states them, for the method shown. Binding seen in cells or lysates may run through a third protein. Some binding calls cover weakened binding; strength is not graded here. Each block holds one molecule with its values, some of them ahead of it.

Chains of the proteins cited; added tags and fusions are not shown.
UniProt P61168: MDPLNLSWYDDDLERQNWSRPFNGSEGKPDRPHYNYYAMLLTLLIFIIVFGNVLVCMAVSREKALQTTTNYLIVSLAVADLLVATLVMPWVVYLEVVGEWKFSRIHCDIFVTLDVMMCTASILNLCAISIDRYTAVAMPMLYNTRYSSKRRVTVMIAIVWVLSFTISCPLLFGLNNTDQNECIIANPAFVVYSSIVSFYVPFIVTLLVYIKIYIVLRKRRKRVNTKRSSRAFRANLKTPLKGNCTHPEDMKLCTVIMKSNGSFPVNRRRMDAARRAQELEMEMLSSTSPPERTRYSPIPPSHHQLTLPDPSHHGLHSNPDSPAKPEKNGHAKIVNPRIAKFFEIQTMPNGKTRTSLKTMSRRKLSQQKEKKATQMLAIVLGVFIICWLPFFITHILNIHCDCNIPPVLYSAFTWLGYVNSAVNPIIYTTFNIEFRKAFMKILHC
UniProt Q61616: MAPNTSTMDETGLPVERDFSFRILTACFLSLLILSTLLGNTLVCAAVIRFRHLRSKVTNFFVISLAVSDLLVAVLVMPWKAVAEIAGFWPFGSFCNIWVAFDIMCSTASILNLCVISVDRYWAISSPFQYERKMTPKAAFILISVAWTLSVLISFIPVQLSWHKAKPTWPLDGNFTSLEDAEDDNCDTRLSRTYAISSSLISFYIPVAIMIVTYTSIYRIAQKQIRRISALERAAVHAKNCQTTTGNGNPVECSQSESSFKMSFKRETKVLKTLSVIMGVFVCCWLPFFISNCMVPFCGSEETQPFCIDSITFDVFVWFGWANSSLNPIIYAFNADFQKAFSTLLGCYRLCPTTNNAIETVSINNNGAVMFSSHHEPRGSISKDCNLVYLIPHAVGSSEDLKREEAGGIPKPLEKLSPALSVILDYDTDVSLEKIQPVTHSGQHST
UniProt P58406: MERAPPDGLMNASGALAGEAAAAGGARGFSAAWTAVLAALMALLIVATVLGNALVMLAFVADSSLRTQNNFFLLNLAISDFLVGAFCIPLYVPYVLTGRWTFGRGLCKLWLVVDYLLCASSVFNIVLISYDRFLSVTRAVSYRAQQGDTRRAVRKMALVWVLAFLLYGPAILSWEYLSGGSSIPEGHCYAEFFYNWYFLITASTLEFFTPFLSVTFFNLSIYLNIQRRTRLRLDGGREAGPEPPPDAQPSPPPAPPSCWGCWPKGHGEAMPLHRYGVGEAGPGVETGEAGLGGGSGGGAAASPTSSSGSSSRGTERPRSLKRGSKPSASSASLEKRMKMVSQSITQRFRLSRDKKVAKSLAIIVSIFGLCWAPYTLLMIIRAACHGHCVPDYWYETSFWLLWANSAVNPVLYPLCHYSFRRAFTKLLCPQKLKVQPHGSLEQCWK
UniProt O55242: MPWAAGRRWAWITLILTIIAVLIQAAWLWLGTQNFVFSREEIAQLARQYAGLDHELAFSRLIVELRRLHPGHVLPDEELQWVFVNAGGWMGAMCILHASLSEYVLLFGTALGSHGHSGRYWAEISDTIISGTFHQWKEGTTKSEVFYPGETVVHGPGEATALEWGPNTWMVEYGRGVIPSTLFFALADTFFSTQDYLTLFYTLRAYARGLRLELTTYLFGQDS

Key:
[1] = target: dopamine D2 receptor (mouse (endogenous in striatum)) (UniProt P61168); assay: proximity ligation; in situ PLA (Duolink) on free-floating fixed striatal sections of C57BL/6J mice with pairs of primary antibodies; single antibodies as negative controls; red puncta per nucleus
[2] = target: dopamine D1 receptor (mouse (endogenous in striatum)) (UniProt Q61616); assay: as above
[3] = target: dopamine D2 receptor (mouse (endogenous in striatum)) (UniProt P61168); assay: co-IP; striatal lysates (500 μg) of naïve C57BL/6J mice in 20 mM Tris-HCl pH 7.4, 0.5% NP-40; precleared, anti-D1R, anti-D2R or anti-H3R antibody or isotype IgG overnight at 4 °C, protein A/G-agarose, three washes with lysis buffer; Western blot
[4] = target: dopamine D1 receptor (mouse (endogenous in striatum)) (UniProt Q61616); assay: as above

- binding [1]: binds
- binding [2]: binds
- binding [3]: binds
- binding [4]: binds
Molecule: histamine H3 receptor (from UniProt P58406 1-445)

- binding [1]: binds
- binding [2]: binds
Molecule: sigma receptor σ1R (from UniProt O55242 1-223)

- binding [1]: no binding
- binding [2]: binds
B1: sigma receptor σ2R (receptor, UniProt Q8VD00 1-176)
chain: MGALAARRCVEWLLGLYFVSHIPITLFIDLQAVLPPELYPQEFSNLLRWYSKEFKDPLMQEPPVWFKSFLLCELVFQLPFFPIAAYAFFKGSCRWIRIPAIIYAAHTITTLIPILYTLLFEDFSKAVAFKGQRPESFRERLTLVGVYAPYLIIPLILLLFMLRNPYYKYEEKRKKK
